# Assay results: PubChem BioAssay AID624296 (National Center for Advancing Translational Sciences (NCATS), 2012)
# About 9,900 (2.8%) of roughly 350,000 compounds were called active. Inconclusive means that the source gave no clear call. Such entries were picked first, then a sample of the others. Calls come from the whole dose curve; as a rule, active = well fitted activation curve with a large enough effect; inconclusive = small, poorly fitted or top-dose-only effect; inactive = no such curve, though single readings can be large or run the other way. No potency is given beside an inconclusive call; the fits are too rough.
# Experiment: A quantitative high throughput screen for small molecules that induce DNA re-replication in MCF 10a normal breast cells. For activity, positive = re-replication: % of control where 0% means no effect. Note: nearly all actives have a fitted effect of over 50% in size.
# Details: MCF 10A DNA re-replication, Hoechst nuclear intensity, 48 h; activity, positive = re-replication: at 46.1 µM (top of the series)
# Potency is the fitted concentration of half-maximal effect; tags give direction and shape of the fitted curve.
Structure (SMILES),"activity, positive = re-replication",Potency
Cc1ccc(-c2nnc(N3CCN(C(=O)CN4CCOCC4)CC3)c3ccccc23)cc1,inactive: 7.57%,
Cc1cc(-c2nn(-c3ccccc3F)cc2CN2CCN(c3ccncc3)CC2)c(C)s1,,"inconclusive [activator, single point]"
Cc1cccc(NC(=S)N2CCN(S(=O)(=O)c3cccc(F)c3)CC2)c1,,"inconclusive [activator, partial curve]"
COC(=O)CN(C#N)c1nc(N(C)C)nc(N(C)C)n1,inactive: 1.54%,
O=[N+]([O-])c1ccc(Cl)cc1CN1CCCCCC1,,"inconclusive [activator, partial curve, poor fit]"
CCOC(=O)c1[nH]c2cc(OC)c(OC)cc2c1NC(=O)C(C)N1CCN(Cc2ccccc2)CC1 (centres undefined),,"inconclusive [activator, single point]"
COc1ccc(C(=O)Nc2ccccc2C(=O)NCc2cccnc2)cc1,inactive: 4.11%,
COCCCN(C(=O)CSCC(=O)Nc1cccc(C)c1)c1c(N)n(Cc2ccccc2)c(=O)[nH]c1=O,inactive: 1.88%,
CCOc1ccccc1CNC(=O)C1CCCN(c2nnc(C)c3c(C)n(-c4ccccc4)nc23)C1 (centres undefined),,active: 14.6 µM
COc1ccc(OC)c(S(=O)(=O)n2cnc3ccccc32)c1,,"inconclusive [activator, single point]"
COc1ccc(C(=O)N2CCN(c3nc4cc(C)ccc4cc3C#N)CC2)c(OC)c1,inactive: -1.78%,
Cc1ccc(-c2nc3ccccc3c(=O)n2Cc2ccccc2)cc1,,"inconclusive [activator, partial curve, poor fit]"
CCn1nc(NS(=O)(=O)c2ccccc2)c2cc3cccc(C)c3nc21,,"inconclusive [activator, single point]"
COc1ccc(Cl)cc1C=CC=NNS(=O)(=O)c1ccc(C)cc1,,"inconclusive [activator, single point]"
COC(=O)C1CCc2c(ccc3c2CCCC3)C1=O (centres undefined),inactive: -14.3%,
Cc1csc(NC(=O)c2cccn2C)n1,,"inconclusive [activator, single point]"
Cc1nc(NC(=O)C2CC2)sc1C(=O)Nc1ccc(Br)cc1,,"inconclusive [activator, single point]"
CCc1c(-c2n[nH]c(=S)n2Cc2ccccc2)csc1C,,"inconclusive [activator, partial curve, poor fit]"
CC(C)(C)c1ccc(C2CC2C(=O)N/N=C\c2ccc[nH]2)cc1 (centres undefined),,"inconclusive [activator, full curve]"
Cc1cc(C(c2ccc(C)o2)c2ccc(C)o2)c(O)c([N+](=O)[O-])c1,,"inconclusive [activator, single point]"
O=C(/C=C\NCC(=O)c1ccccc1)c1ccc2ccccc2c1,,"inconclusive [activator, single point]"
CCOC(=O)/C(C#N)=C1/C=CN(C)C(C)=N1,,"inconclusive [activator, single point]"

Structure (SMILES),"activity, positive = re-replication",Potency
O=C(c1cc2cc(Cl)ccc2[nH]1)N1CCN(c2ccccc2F)CC1,inactive: -2.86%,
C=C(C)COc1ccc(-c2[nH]ncc2Oc2cccc(OC)c2)c(O)c1,,"inconclusive [activator, single point]"
CCNC(=O)CCn1nc(-c2ccc(Cl)cc2)c2ccccc2c1=O,,"inconclusive [activator, single point]"
CCC1CCCCN1C(=S)NC(=O)c1cccc([N+](=O)[O-])c1 (centres undefined),inactive: 9.96%,
O=Cc1cn(-c2ccccc2)nc1-c1ccc2c(c1)OCCO2,inactive: 16.1%,
Oc1c(CN2CCCC(C(F)(F)F)C2)cc(Cl)c2ccccc12 (centres undefined),,"inconclusive [activator, single point]"
O=C(/C=C/c1cccc([N+](=O)[O-])c1)NCc1cccnc1,,"inconclusive [activator, partial curve, poor fit]"
CCc1nn(CCCC(=O)NCc2ccc(OC(C)C)cc2)c(=O)c2cc3occc3n12,,"inconclusive [activator, single point]"
O=C(NC(=S)Nc1cccc(NC(=S)NC(=O)c2ccccc2)c1)c1ccccc1,inactive: -23%,
NC(=O)CC(NC(=O)c1cccc(Br)c1)c1ccc(N2CCN(c3ccc(F)cc3)CC2)c([N+](=O)[O-])c1 (centres undefined),,"inconclusive [activator, single point]"
CSc1ccccc1OCc1cc(C(=O)N2CCN(C)C(c3ccccc3)C2)no1 (centres undefined),,"inconclusive [activator, full curve, poor fit]"
O=S(=O)(c1ccc(F)cc1)c1nc(-c2ccco2)oc1Nc1ccc(F)cc1,,"inconclusive [activator, single point]"
C=C(C)COc1ccc(-c2[nH]ncc2-c2ccccc2)c(O)c1,,"inconclusive [activator, single point]"
Cc1cccc(NC(=O)COn2nnc3ccc(S(C)(=O)=O)cc32)c1,inactive: -1.96%,
CCOC(=O)Cc1nn(Cc2nc(-c3ccc(C#N)cc3)cs2)c(=O)c2ccccc12,inactive: -0.517%,
COc1ccc2nccc(/C=C/c3ccnc4ccc(OC)cc34)c2c1,,active: 14.6 µM
O=C(NC12CC3CC(CC(C3)C1)C2)c1cncc(O)c1,,"inconclusive [activator, partial curve, poor fit]"
COc1ccc(CN(C)CC(=O)Nc2ccccc2C(F)(F)F)cc1,,"inconclusive [activator, single point]"
O=C(O)CCCNS(=O)(=O)c1ccc(Br)s1,,"inconclusive [activator, partial curve, poor fit]"
COc1cccc(-n2c(N)c(C(=O)Nc3c(C)n(C)n(-c4ccccc4)c3=O)c3nc4ccccc4nc32)c1,,"inconclusive [activator, full curve, poor fit]"
COc1ccccc1/C=C(\C)C(=O)c1c(C)cc(C)[nH]c1=O,inactive: -6.68%,
CCOC(=O)C1=C(O)/C(=C/c2ccc(OCC(=O)Nc3ccc(C)cc3)cc2)N=C1C,,"inconclusive [activator, full curve, poor fit]"
